Screen size: about 420,000 compounds; about 64,000 (15%) were called active. Inconclusive means that the source gave no clear call. Such entries were picked first, then a sample of the others. Calls follow the shape of the dose curve; as a rule, active = well fitted inhibition curve with a large enough effect; inconclusive = small, poorly fitted or top-dose-only effect; inactive = flat fitted curve, though single readings scatter. Potencies of inconclusive entries are left out as doubtful fits.
Test: qHTS for Inhibitors of human tyrosyl-DNA phosphodiesterase 1 (TDP1): qHTS in cells in absence of CPT; also: nearly all actives have a fitted effect of over 55% in size
Conditions: DT40 Tdp1-/- hTDP1 cells, no CPT, ATP luminescence, 48 h; activity change, negative = growth inhibition: at 46.2 µM (top of the series)
Method in brief: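 Growth kinetics read by CellTiter-Glo luminescence after ≥48 hr at 37 °C. Cells: DT40 Tdp1-/- stably carrying human TDP1, 400 per well, compound exposure in the absence of CPT (DMSO vehicle).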
In the case of `O=C(CS(=O)(=O)Nc1ccc(F)cc1Cl)Nc1ccc(F)cc1Cl`, the Potency is reported as inconclusive [inhibitor, single point].
With `CCN(Cc1ccccc1)c1ccc(/C=N/N2CCOCC2)cc1` the “activity change, negative = growth inhibition” value was inactive: -16.4%.
In the case of `CC(C)CN1CCNC(=O)C1CC(=O)NCc1cnn(-c2cccc(F)c2)c1` (stereo not given), the Potency is reported as inconclusive [inhibitor, single point].
In the case of `CCOc1ccccc1CN(CCc1ccc2c(c1)OCO2)Cc1ccccn1`, the Potency is reported as active: 16.4 µM.
In the case of `COc1ccc(NC(=O)CCCCC(=O)Nc2ccc(OC)cc2)cc1`, the “activity change, negative = growth inhibition” value is reported as inactive: 16.2%.
For `COc1ccc(C(=O)Nc2ccccc2CCC2CCCCN2C)cc1` (stereo not given), the “activity change, negative = growth inhibition” value was inactive: -29.8%.
For `CCCOc1ccc(-c2nnc(-c3cccs3)o2)cc1`, the “activity change, negative = growth inhibition” value was inactive: -17%.
In the case of `CN(Cc1ccccc1)C(=O)CN1C(=O)NC(C)(c2ccc(C(C)(C)C)cc2)C1=O` (stereo not given), the activity change, negative = growth inhibition is reported as inconclusive: -31.5% [inhibitor].
With `CCOC(=O)N(C(=O)c1ccccc1)c1ccccc1` the Potency was inconclusive [inhibitor, single point].
For `Cc1cc(C)n2c(Nc3ccc4c(c3)OCCO4)c(-c3ccc(Cl)cc3)nc2n1`, the Potency was inconclusive [inhibitor, single point].
With `O=C(Nc1cccc(-c2nn[nH]n2)c1)c1csc2c1CCCC2` the “activity change, negative = growth inhibition” value was inactive: -7.24%.
In the case of `C=CCN(CC=C)C(=S)NC(=O)c1ccc([N+](=O)[O-])cc1`, the Potency is reported as active: 3.66 µM.
For `C=CCN(CC=C)S(=O)(=O)c1ccc(F)cc1`, the “activity change, negative = growth inhibition” value was inactive: -14.8%.
With `CC(OC(=O)CCNS(=O)(=O)c1cccs1)C(=O)Nc1ccc(S(N)(=O)=O)cc1` (stereo not given) the “activity change, negative = growth inhibition” value was inactive: -1.98%.
In the case of `CC(C)(C)c1ccc(-c2nc(C#N)c(N3CCC(C(N)=O)CC3)o2)cc1`, the Potency is reported as inconclusive [inhibitor, single point].
With `Cc1cc(C(=O)OCC(=O)N(C)c2ccccc2)c2ccccc2n1` the Potency was inconclusive [inhibitor, single point].
For `C[C@@H]1CN([C@H](C)CO)C(=O)CCCn2nncc2CO[C@@H]1CN(C)C(=O)Nc1ccc(N2CCN(C)CC2)cc1`, the Potency was inconclusive [inhibitor, full curve, poor fit].
For `CC1(c2ccc3c(c2)OCCO3)NC(=O)N(CC(=O)Nc2ccccc2)C1=O` (stereo not given), the “activity change, negative = growth inhibition” value was inactive: -8.79%.
With `CC1(C)Cc2c(c(N3CCOCC3)nc3snc(N)c23)CO1` the Potency was active: 2.51 µM.
In the case of `O=C(CN1CCN(c2ccc(C(F)(F)F)cn2)CC1)NCc1ccc2c(c1)OCO2`, the Potency is reported as inconclusive [inhibitor, single point].
For `CC(C)c1ccc(NC(=O)Nc2nc(C(N)c3ccccc3)cs2)cc1` (stereo not given), the Potency was active: 23.1 µM.
For `O=C(CN1C(=O)C2C3C=CC(C3)C2C1=O)OCC(=O)c1ccc(Cl)cc1` (stereo not given), the “activity change, negative = growth inhibition” value was inactive: 15.1%.
With `COCCNC(=O)C1(C)CCCN(Cc2ccc3ccccc3c2Br)C1` (stereo not given) the Potency was inconclusive [inhibitor, single point].
For `COc1ccc(-c2[nH]ncc2CN2CCC(C(=O)c3ccc(F)cc3)CC2)cc1`, the Potency was inconclusive [inhibitor, single point].
In the case of `Cc1cc2cc(CCNC(=O)c3ccc(C)c([N+](=O)[O-])c3)c(=O)[nH]c2cc1C`, the Potency is reported as active: 13 µM.
For `CC(=O)Nc1ccc(NC(=O)C(=O)c2cn(CC(=O)N3CCCCC3)c3ccccc23)cc1`, the Potency was inconclusive [inhibitor, partial curve].
In the case of `COC(=O)c1ccc(S(=O)(=O)N(Cc2ccccc2)Cc2ccccc2)n1C`, the Potency is reported as inconclusive [inhibitor, partial curve, poor fit].
For `O=C(NC(=S)N1CCN(c2c(Cl)cccc2[N+](=O)[O-])CC1)c1cccs1`, the Potency was inconclusive [inhibitor, single point].
In the case of `CC(=O)c1c(C)[nH]c(C(=O)OCC(=O)N(Cc2ccccc2)C(C)(C)C)c1C`, the Potency is reported as inconclusive [inhibitor, single point].
In the case of `Cc1ccc(C)c(NC(=O)CCc2nc(-c3ccc(C(C)(C)C)cc3)no2)c1`, the Potency is reported as active: 16.4 µM.
With `COc1cc(CNC(=O)CSCc2nc3cccnc3n2C2CCCCC2)cc(OC)c1OC` the Potency was inconclusive [inhibitor, partial curve, poor fit].
With `COc1cc(NC(=O)c2ccc(Cl)cc2)c(OC)cc1Cl` the Potency was inconclusive [inhibitor, single point].
In the case of `CCOC(=O)N1CCN(S(=O)(=O)c2c(C)nc3scc(C)n3c2=O)CC1`, the activity change, negative = growth inhibition is reported as inconclusive: -32.9% [inhibitor].
In the case of `COc1ccc(C(=O)Nc2nnc(SCC(=O)NCc3ccco3)s2)c(OC)c1`, the Potency is reported as inconclusive [inhibitor, partial curve].
For `Cc1c(CC(=O)O)c(=O)oc2c(C)c3occ(-c4ccc(Br)cc4)c3cc12`, the Potency was active: 16.4 µM.
For `CCN(CC(=O)Nc1ccccc1C(F)(F)F)C(=O)c1ccc(N2CCCC2=O)cc1`, the Potency was inconclusive [inhibitor, single point].
In the case of `O=C(NCc1ccco1)c1n[nH]c(=O)c2ccccc12`, the Potency is reported as inconclusive [inhibitor, partial curve].
For `O=C(Nc1ccon1)c1ccc(Cl)c(S(=O)(=O)N2CCCCC2)c1`, the Potency was active: 23.1 µM.
With `CC(Oc1cc(F)ccc1[N+](=O)[O-])C(=O)Nc1ccc(S(=O)(=O)N2CCCC2)cc1` (stereo not given) the Potency was inconclusive [inhibitor, single point].
In the case of `COc1cccc(NC(=O)CN(C)S(=O)(=O)c2cccs2)c1`, the “activity change, negative = growth inhibition” value is reported as inactive: -21.4%.
With `N#Cc1ccccc1OCC(=O)Nc1cccc(S(=O)(=O)N2CCCC2)c1` the Potency was inconclusive [inhibitor, single point].
For `C(=C\c1ccccc1)/CN1CCN(C(c2cccs2)c2nnnn2C2CCCC2)CC1` (stereo not given), the Potency was inconclusive [inhibitor, single point].
With `CCC(=O)N1CCc2cc(CNC(=O)Nc3ccccc3Cl)ccc21` the Potency was inconclusive [inhibitor, single point].
In the case of `CC(c1ccccc1)n1c(-c2ccc(C(C)(C)C)cc2)n[nH]c1=S` (stereo not given), the Potency is reported as inconclusive [inhibitor, single point].
With `CC1(C)N(OCc2ccccc2)C(=O)C(=O)N(OCc2ccccc2)C1(C)C` the Potency was inconclusive [inhibitor, single point].
In the case of `CCOc1cc(C#N)c(NC(=O)c2cccc(S(=O)(=O)N3CCOCC3)c2)cc1OCC`, the Potency is reported as inconclusive [inhibitor, single point].
With `CCCCCCCCCCCC1=C(O)C(=O)C=C(O)C1=O` the Potency was inconclusive [inhibitor, single point].
In the case of `COc1ccc(CN(C(=O)c2snc(C(N)=O)c2N)C(C(=O)NC2CCCC2)c2ccco2)cc1` (stereo not given), the Potency is reported as inconclusive [inhibitor, single point].
For `CCc1nc2c(OCc3cccc(OC)c3)cccn2c1N(C)C(=O)C(C)C`, the Potency was inconclusive [inhibitor, single point].
With `CC(C)=C1C2CCC1C1C(=O)N(c3ccc4c(c3)OCO4)C(=O)C21` (stereo not given) the “activity change, negative = growth inhibition” value was inactive: -24.8%.
For `COc1ccc(-c2cc3ccccc3n2CC(O)CNCCO)cc1` (stereo not given), the Potency was active: 14.6 µM.
In the case of `O=C(OCc1cccc(C(F)(F)F)c1)c1cc([N+](=O)[O-])ccc1N1CCOCC1`, the Potency is reported as inconclusive [inhibitor, single point].
With `Cc1ccccc1C(=O)NC(=S)NCc1ccccc1` the Potency was inconclusive [inhibitor, single point].
With `CNC(=S)N(CCc1c(C)[nH]c2ccc(Cl)cc12)Cc1cccnc1` the Potency was inconclusive [inhibitor, partial curve].
For `CC1CCN(C(=O)CSc2nc(-c3ccc(C(C)C)cc3)no2)CC1`, the Potency was active: 23.1 µM.
In the case of `CC(=O)c1c(N2CCN(C(=O)C3CCCO3)CC2)nc(=S)n(-c2ccccc2)c1C` (stereo not given), the activity change, negative = growth inhibition is reported as inconclusive: -36.2% [inhibitor].
With `O=C(Cc1ccc(F)cc1)OCC(=O)c1cc2ccccc2o1` the “activity change, negative = growth inhibition” value was inactive: -15.4%.
In the case of `COc1ccc2cc(CCNC(=O)c3c(-c4ccccc4Cl)noc3C)c(=O)[nH]c2c1`, the Potency is reported as inconclusive [inhibitor, single point].
For `O=[N+]([O-])c1ccc(SCc2ccco2)cc1N1CCOCC1`, the Potency was inconclusive [inhibitor, single point].
In the case of `Cc1ccc(C(=O)Nc2ccc3c(c2)N(C)C(=O)c2ccccc2S3)cc1`, the Potency is reported as active: 2.31 µM.
For `Cc1cc(C)c2c(N)c(C(=O)NN3CC(=O)N(c4ccccc4)CC3=O)sc2n1`, the “activity change, negative = growth inhibition” value was inactive: -4.29%.
In the case of `Oc1ccc(/C=N/Nc2ccnc3cc(Cl)ccc23)c(O)c1`, the Potency is reported as inconclusive [inhibitor, partial curve].
With `C#CCOCCOCCOCCNc1nc(N2CCN(C(=O)[C@H]([C@@H](C)O)n3cc(CCCCN)nn3)CC2)nc(N2CCN(C(=O)[C@H]([C@@H](C)CC)n3cc(CCCN=C(N)N)nn3)CC2)n1` the “activity change, negative = growth inhibition” value was inactive: 5.93%.
In the case of `O=C(OCc1cn([C@@H]2C[C@H](c3ccccc3)N(Cc3cccs3)C[C@H]2O)nn1)c1ccccc1`, the “activity change, negative = growth inhibition” value is reported as inactive: -26.6%.
In the case of `Fc1ccc(Nc2nc3nonc3nc2Nc2cccc(C(F)(F)F)c2)cc1`, the Potency is reported as active: 0.164 µM.
With `CCCCc1nn2c(=O)cc(COC(=O)c3ccc(NC(=O)c4cccs4)cc3)nc2s1` the “activity change, negative = growth inhibition” value was inactive: -18.7%.
In the case of `CCCn1cc(CN2CCN(Cc3ccc(C)o3)C(CCO)C2)c(C)n1` (stereo not given), the “activity change, negative = growth inhibition” value is reported as inactive: 10.3%.
For `CCC(=O)N1N=C(c2cccs2)CC1c1ccc(C)cc1` (stereo not given), the Potency was inconclusive [inhibitor, single point].
In the case of `O=C(Cn1c(=O)n(-c2ccc(Cl)cc2)c(=O)c2c3c(sc21)CCC3)c1ccc(F)cc1`, the Potency is reported as active: 9.2 µM.
For `Cc1ccc(NC(=O)Cn2cnc3c(oc4nc5c(cc43)COC(C)(C)C5)c2=O)cc1`, the Potency was inconclusive [inhibitor, single point].
% is scaled to controls: 0 for no effect and ±100 for the full control effect; potency is read from the fitted curve at half-maximal effect; tags tell the direction and shape of the fitted curve.
